Assay results as given in PubChem BioAssay AID504339 (National Center for Advancing Translational Sciences (NCATS), 2011).
Screen size: about 390,000 compounds; about 17,000 (4.4%) were called active. This list was built around the results that the source calls inconclusive (neither active nor inactive); the mix of calls is not that of the screen. Calls come from the whole dose curve; as a rule, active = well fitted inhibition curve with a large enough effect; inconclusive = small, poorly fitted or top-dose-only effect; inactive = no such curve, though single readings can be large or run the other way. Potencies of inconclusive entries are doubtful fits and often do not repeat.
% is set by controls: 0 for no effect and ±100 for the full control effect; potency is the fitted concentration of half-maximal effect; tags give direction and shape of the fitted curve.
Note: nearly all actives have a fitted effect of over 50% in size.

The compounds below were run against Lysine-specific demethylase 4A (Homo sapiens) (UniProt O75164) (assay: qHTS Assay for Inhibitors of JMJD2A-Tudor Domain). Settings: AlphaScreen JMJD2A-Tudor / H3K4me3 peptide binding; activity change, negative = inhibition: at 114 µM (top of the series).
Chain of UniProt O75164 (O75164 whole entry, looked up, the tested form may be a part): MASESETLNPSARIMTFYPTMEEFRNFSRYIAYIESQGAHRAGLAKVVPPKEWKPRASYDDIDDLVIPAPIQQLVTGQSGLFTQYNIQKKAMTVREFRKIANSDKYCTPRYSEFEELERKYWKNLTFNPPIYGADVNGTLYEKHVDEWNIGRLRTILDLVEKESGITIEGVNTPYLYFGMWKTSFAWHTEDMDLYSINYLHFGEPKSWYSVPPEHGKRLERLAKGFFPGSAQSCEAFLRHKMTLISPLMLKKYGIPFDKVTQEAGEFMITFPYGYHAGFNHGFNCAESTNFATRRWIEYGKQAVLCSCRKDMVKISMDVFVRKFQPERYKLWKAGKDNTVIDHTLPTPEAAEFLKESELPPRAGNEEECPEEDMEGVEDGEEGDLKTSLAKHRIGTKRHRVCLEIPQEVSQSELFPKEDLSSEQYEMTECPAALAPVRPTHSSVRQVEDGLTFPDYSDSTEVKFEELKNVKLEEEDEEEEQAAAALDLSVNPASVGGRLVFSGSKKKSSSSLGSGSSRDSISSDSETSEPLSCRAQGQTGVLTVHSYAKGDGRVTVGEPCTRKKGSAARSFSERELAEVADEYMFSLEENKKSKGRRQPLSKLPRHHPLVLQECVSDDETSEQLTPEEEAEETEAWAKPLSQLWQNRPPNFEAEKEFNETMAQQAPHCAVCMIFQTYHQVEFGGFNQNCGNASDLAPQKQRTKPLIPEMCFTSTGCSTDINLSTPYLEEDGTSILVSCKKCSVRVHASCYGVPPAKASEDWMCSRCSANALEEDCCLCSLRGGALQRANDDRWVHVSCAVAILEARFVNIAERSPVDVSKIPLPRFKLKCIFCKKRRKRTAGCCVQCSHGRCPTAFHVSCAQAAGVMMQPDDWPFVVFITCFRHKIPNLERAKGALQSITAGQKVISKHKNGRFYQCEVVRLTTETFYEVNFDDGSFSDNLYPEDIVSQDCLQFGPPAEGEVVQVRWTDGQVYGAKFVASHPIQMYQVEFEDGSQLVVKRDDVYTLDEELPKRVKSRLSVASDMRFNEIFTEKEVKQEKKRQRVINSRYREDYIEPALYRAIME
In the case of `c1ccc(N2CCN(c3nc(-c4ccccn4)nc4ccccc34)CC2)cc1`, the Potency is reported as inconclusive: 1.78 µM [inhibitor, partial curve].
For `Oc1ccc(-c2nc3ccc4ccccc4c3c3c2CCC3)cc1O`, the Potency was inconclusive: 1.78 µM [inhibitor, full curve, poor fit].
With `O=C1CC(=O)Nc2cc(S(=O)(=O)N3CCOc4ccc(Cl)cc43)ccc2N1` the Potency was inconclusive: 56.2 µM [inhibitor, partial curve].
With `CCOC(=O)c1c(C)nc(C)c(C(=O)OCC)c1-c1ccco1` the Potency was active: 79.4 µM.
With `COc1ccc2c(c1)N(C)/C(=C/c1cccc[n+]1C)S2` the Potency was inconclusive: 39.8 µM [inhibitor, single point].
In the case of `OCCCCNCc1cc(Br)ccc1OCc1ccccc1F`, the Potency is reported as inconclusive: 25.1 µM [inhibitor, partial curve].
With `O=C(NCc1ccc(Cl)cc1)C1CCN(S(=O)(=O)c2ccccc2)CC1` the “activity change, negative = inhibition” value was inactive: -2.42%.
In the case of `COc1ccc(CCNC(=O)Cc2c(C)c3cc4c(C)coc4cc3oc2=O)cc1OC`, the Potency is reported as inconclusive: 56.2 µM [inhibitor, single point].
With `O=c1[nH]n2c(=O)c3c([nH]c2c1N=Nc1cccc(Cl)c1)CCCC3` the Potency was inconclusive: 50.1 µM [inhibitor, partial curve].
With `COc1cccc(CNC(=O)c2nnn(CC(=O)Nc3cc(C)ccc3C)c2N)c1` the Potency was inconclusive: 79.4 µM [inhibitor, partial curve].
In the case of `N#CC1=C(N)Oc2cc(N)ccc2C1C1CCCCC1` (stereo not given), the Potency is reported as inconclusive: 70.8 µM [inhibitor, single point].
`O=C1Nc2ccc(Br)cc2C12NNc1ccccc1O2` (stereo not given) was tested, and the Potency was inconclusive: 44.7 µM [inhibitor, partial curve].
With `Cc1ccc(NC(c2nnc(-c3ccccc3)o2)c2ccccc2F)c(Cl)c1` (stereo not given) the “activity change, negative = inhibition” value was inactive: 26.4%.
For `c1ccc(-c2csc(Nc3ccc4c(c3)OCCO4)n2)cc1`, the Potency was active: 70.8 µM.
`Fc1ccccc1-c1cc2ncccc2cn1` was tested, and the Potency was inconclusive: 28.2 µM [inhibitor, single point].
In the case of `Cc1nn(Cc2ccc(Cl)c(Cl)c2)c(C)c1NC(=O)c1cn(-c2ccccc2)nc1-c1ccccc1`, the “activity change, negative = inhibition” value is reported as inactive: 1.32%.
For `COc1ccc(C(CNC(=O)c2ccc(-c3ccccc3Cl)o2)N2CCOCC2)cc1` (stereo not given), the “activity change, negative = inhibition” value was inactive: -35.2%.
For `COc1cccc(NC(=O)CN(C)C(=O)c2ccc(-c3ccc(Cl)cc3)o2)c1`, the Potency was inconclusive: 79.4 µM [inhibitor, partial curve].
With `CC(C)COCc1ccc(O)c2ncccc12` the Potency was active: 44.7 µM.
`Cc1cccc(OCC(=O)N/N=C/c2ccc(N(C)C)cc2)c1` was tested, and the Potency was inconclusive: 39.8 µM [inhibitor, partial curve].
`Cn1c(Cl)nc2ccccc21` was tested, and the Potency was inconclusive: 89.1 µM [inhibitor, partial curve].
With `Cc1c(C)n(C)c2ccc(C(=O)NCCc3ccco3)cc12` the Potency was inconclusive: 56.2 µM [inhibitor, partial curve].
`O=C(CCCN1C(=O)C2CC=CCC2C1=O)Nc1cccc(F)c1` (stereo not given) was tested, and the Potency was inconclusive: 39.8 µM [inhibitor, single point].
With `COc1ccc(C2=Nn3c(nnc3-c3ccccn3)SC2)cc1` the Potency was active: 39.8 µM.
For `O=[N+]([O-])c1cc([N+](=O)[O-])c(Oc2cc(F)ccc2F)cc1NN1CCCCC1`, the Potency was inconclusive: 28.2 µM [inhibitor, partial curve].
`Cc1cccc(CN2CCN(C(c3ccccc3)c3ccc(Cl)cc3)CC2)c1` (stereo not given) was tested, and the Potency was active: 79.4 µM.
With `CCC(C(=O)NC1CCCCC1)n1c(SCc2cccc(F)c2)nc2ccncc21` (stereo not given) the Potency was “inactive”.
For `CCOc1ccc(/C=N/N(C)c2ccccc2)cc1OC`, the Potency was active: 44.7 µM.
With `O=C(NNc1c2ccccc2nc2ccccc12)c1cccc(O)c1` the Potency was active: 44.7 µM.
`Cc1cc(C(=O)OCC(=O)NC(C)C)c2ccccc2n1` was tested, and the activity change, negative = inhibition was inactive: -27.2% [at 11.4 µM].
With `CC(CNC(=O)C1CCN(C(=O)c2cc3sccc3n2C)CC1)c1ccccc1` (stereo not given) the “activity change, negative = inhibition” value was inactive: -4.73%.
For `Cc1ccc(N(C(=O)C(F)(F)F)C(C(=O)NC2CCCCC2)c2ccncc2)cc1C` (stereo not given), the Potency was inconclusive: 25.1 µM [inhibitor, partial curve, poor fit].
`O=C(CSc1ncc2c(n1)-c1ccccc1N(Cc1ccc(Cl)cc1)S2(=O)=O)c1ccccc1` was tested, and the “activity change, negative = inhibition” value was inactive: -8.12%.
`CN=c1sc(C(=O)Nc2cccc(Cl)c2)cc(=O)n1C` was tested, and the Potency was active: 44.7 µM.
`CCCOc1ccc(C2=CSC3=NCCN23)cc1[N+](=O)[O-]` was tested, and the Potency was inconclusive: 25.1 µM [inhibitor, full curve].
`S=C(NCCCN(Cc1ccc(Cl)c(Cl)c1)c1ccc(Br)cn1)NCCc1cnc[nH]1` was tested, and the Potency was active: 39.8 µM.
In the case of `Cc1c(Cl)cccc1NC(=O)Cn1c(CCC(=O)O)ccc1-c1ccc(Cl)cc1`, the Potency is reported as active: 35.5 µM.
For `COc1cc(-c2c(C#N)c(N)nc(SCc3ccncc3)c2C#N)cc(OC)c1OC`, the Potency was inconclusive: 79.4 µM [inhibitor, partial curve].
In the case of `COc1ccc(C2/C=C\CN(C(=O)OCC3c4ccccc4-c4ccccc43)CC(=O)N2Cc2cccc(F)c2)cc1` (stereo not given), the “activity change, negative = inhibition” value is reported as inactive: -17.8%.
In the case of `COc1ccc(CN2CCN(Cc3ccc4cc(F)ccc4n3)CC2CCO)c(C)c1C` (stereo not given), the “activity change, negative = inhibition” value is reported as inactive: -26.7%.
For `O=C(COC(=O)c1cc(=O)[nH]c2ccccc12)NC(=O)c1ccccc1`, the “activity change, negative = inhibition” value was inactive: -17.4%.
With `CCCOC(=O)c1c(NC(=O)C2C3C=CC(C3)C2C(=O)O)sc2c1CCC(C)C2` (stereo not given) the Potency was active: 28.2 µM.
In the case of `CC1CCc2c(sc3nc(CN4CCOCC4)nc(N4CCc5ccccc5C4)c23)C1` (stereo not given), the Potency is reported as inconclusive: 56.2 µM [inhibitor, partial curve].
`COc1cc(/C=N/NC(=O)C(=O)NCc2ccco2)cc(Br)c1O` was tested, and the Potency was inconclusive: 56.2 µM [inhibitor, partial curve, poor fit].
For `CC(C)=CCC/C(C)=C/COc1c2occc2cc2ccc(=O)oc12`, the “activity change, negative = inhibition” value was inactive: 27.2%.
For `Clc1ccccc1CSc1nc(NCCc2ccccc2)c2ccccc2n1`, the “activity change, negative = inhibition” value was inactive: 8%.
With `OCCNCc1cc(Br)ccc1OCc1ccc(Cl)cc1Cl` the Potency was inconclusive: 89.1 µM [inhibitor, single point].
For `Cc1cccc(NCCC(=O)c2ccc(Br)cc2)c1`, the Potency was inconclusive: 56.2 µM [inhibitor, partial curve].
For `COc1ccc2c(C)cc(SCC(=O)NC3CCCCC3)nc2c1`, the “activity change, negative = inhibition” value was inactive: -10.3%.
In the case of `COc1ccc(Nc2nc(NN)nc(Nc3ccc(OC)cc3)n2)cc1`, the Potency is reported as active: 44.7 µM.
With `Cc1ccc(NS(=O)(=O)c2cc(C(=O)O)ccc2Cl)cc1` the Potency was inconclusive: 70.8 µM [inhibitor, partial curve].
With `Cc1cc(C)cc(OCC(=O)N/N=C/c2ccco2)c1` the “activity change, negative = inhibition” value was inactive: 2.08%.
In the case of `CCN(CC)C1Oc2cc3c(cc2C(c2cccc(OC)c2O)C1C)OCO3` (stereo not given), the Potency is reported as inconclusive: 39.8 µM [inhibitor, full curve].
In the case of `Cc1ccc(NC(=O)CN(C)CC(=O)Nc2ccccc2Oc2ccccc2)cc1`, the Potency is reported as active: 3.55 µM.
With `O=C(O)c1ccc2c(c1Nc1ccccc1)C(=O)c1ccccc1C2=O` the Potency was active: 50.1 µM.
With `COc1ccc(C(=O)NC(=S)NCc2ccccc2)cc1OC` the Potency was inconclusive: 89.1 µM [inhibitor, partial curve].
For `Cc1cccc(C(=O)NNc2ncnc3c2cnn3-c2ccc(C)c(Cl)c2)c1`, the “activity change, negative = inhibition” value was inactive: -21.7%.
In the case of `COc1ccc(S(=O)(=O)CC(=O)Nc2nnc(C(F)(F)F)s2)cc1`, the “activity change, negative = inhibition” value is reported as inactive: 4.61%.
`O=C(Cn1c(-c2cccs2)cc2cc(F)ccc21)NCCCN1CCN(c2ccc(F)cc2)CC1` was tested, and the Potency was inconclusive: 22.4 µM [inhibitor, full curve, poor fit].
For `Cc1ccc2nc(SCC(=O)NCc3ccco3)c(C#N)cc2c1`, the Potency was inconclusive: 89.1 µM [inhibitor, single point].
With `CCN(C(=O)COC(=O)CCC(=O)c1cccs1)c1ccccc1` the “activity change, negative = inhibition” value was inactive: -2.36%.
`CC1(C)Cc2c(sc3[nH]c(=S)n(Cc4ccco4)c(=O)c23)CO1` was tested, and the Potency was inconclusive: 79.4 µM [inhibitor, partial curve].
In the case of `O=C1CSC(=S)N1/N=C/C=C/c1ccccc1`, the Potency is reported as inconclusive: 56.2 µM [inhibitor, partial curve].
For `Cc1ccc2nc(-c3ccc(C)o3)c(NC3CCCC3)n2c1`, the Potency was inconclusive: 56.2 µM [inhibitor, partial curve].
In the case of `Cc1cc(C)cc(-n2nnn(C3C/C(=N/NC(N)=S)C4OCC3O4)c2=S)c1` (stereo not given), the Potency is reported as inconclusive: 56.2 µM [inhibitor, partial curve].
With `CC(=O)/C(C[N+]1(C)CCCCC1)=N\O` the Potency was active: 35.5 µM.
`Cc1cccc(N2CCN(C(=O)CN3C(=O)COc4ccc(S(=O)(=O)N5CCCC5)cc43)CC2C)c1` (stereo not given) was tested, and the “activity change, negative = inhibition” value was inactive: -23.5%.
For `COCCCNc1oc(-c2ccccc2F)nc1C#N`, the Potency was inconclusive: 14.1 µM [inhibitor, full curve].
In the case of `Cc1cccc(-n2c(-c3csc(C(C)C)c3)n[nH]c2=S)c1`, the Potency is reported as inconclusive: 50.1 µM [inhibitor, partial curve].
`Cc1ccc(CNC(=O)CN2C(=O)C3(SCC(=O)N3c3ccc(F)c(F)c3)c3ccccc32)cc1` (stereo not given) was tested, and the “activity change, negative = inhibition” value was inactive: -26.5%.
With `COc1cc(C(=O)NCC(=O)N/N=C/c2ccc(-c3cccc([N+](=O)[O-])c3)o2)cc(OC)c1OC` the “activity change, negative = inhibition” value was inactive: -22.1%.
For `O=C(COc1ccccc1)NC(NC(=S)Nc1ccccc1C(=O)O)C(Cl)(Cl)Cl` (stereo not given), the Potency was active: 31.6 µM.
In the case of `c1cncc(-c2nc3ccccn3c2Nc2ccc3c(c2)OCCO3)c1`, the Potency is reported as inconclusive: 56.2 µM [inhibitor, partial curve].
For `O=c1c2ccccc2nnn1CSc1ccccc1F`, the Potency was inconclusive: 89.1 µM [inhibitor, single point].
For `O=c1cc(NS(=O)(=O)c2ccccc2)nc(SCc2ccc(Cl)cc2)[nH]1`, the “activity change, negative = inhibition” value was inactive: -20.8%.
